These are yes or no findings as the source states them, for the method shown. Binding seen in cells or lysates may run through a third protein. Some entries that bind do so weakly or less than the wild type. Each block holds one binder with its values, some of them ahead of it.
Legend:
[1] = biological target: Flag-tagged splicing factor 3b subunit 1 (SF3B1), wild type (human) (UniProt O75533); test: co-IP; Flag-tagged SF3B1 wild type or K700E overexpressed in K562 cells; immunoprecipitation with Flag antibody, RBM15 detected by western blot with anti-RBM15 antibody
[2] = biological target: Flag-tagged splicing factor 3b subunit 1 (SF3B1) K700E mutant (human) (UniProt O75533); test: as above
[3] = biological target: Flag-tagged full-length TAL1 (T-cell Acute Lymphocytic Leukemia Protein 1) (human) (UniProt P17542); test: co-IP; 293T cells transfected with plasmids expressing ETO2 and Flag-tagged TAL1 proteins; immunoprecipitation with Flag antibody, western blot
[4] = biological target: Flag-tagged TAL1 short form (TAL1s) (human) (UniProt P17542); test: as above
[5] = biological target: Flag-tagged full-length TAL1 (T-cell Acute Lymphocytic Leukemia Protein 1), stable K562 line (human) (UniProt P17542); test: co-IP; K562 stable cell lines expressing Flag-tagged TAL1s or Flag-TAL1fl; immunoprecipitation with Flag antibody, ETO2 detected by anti-ETO2 antibody
[6] = biological target: Flag-tagged TAL1 short form (TAL1s), stable K562 line (human) (UniProt P17542); test: as above

Sequences of proteins named here, by UniProt entry; tags and fusion partners are left off. A change or cut given only in a name is not applied to a line headed by its entry. A line that says so, or that is headed by a name, gives the form on record, which may keep a tag or linker. Residues count along the entry.
UniProt O75533: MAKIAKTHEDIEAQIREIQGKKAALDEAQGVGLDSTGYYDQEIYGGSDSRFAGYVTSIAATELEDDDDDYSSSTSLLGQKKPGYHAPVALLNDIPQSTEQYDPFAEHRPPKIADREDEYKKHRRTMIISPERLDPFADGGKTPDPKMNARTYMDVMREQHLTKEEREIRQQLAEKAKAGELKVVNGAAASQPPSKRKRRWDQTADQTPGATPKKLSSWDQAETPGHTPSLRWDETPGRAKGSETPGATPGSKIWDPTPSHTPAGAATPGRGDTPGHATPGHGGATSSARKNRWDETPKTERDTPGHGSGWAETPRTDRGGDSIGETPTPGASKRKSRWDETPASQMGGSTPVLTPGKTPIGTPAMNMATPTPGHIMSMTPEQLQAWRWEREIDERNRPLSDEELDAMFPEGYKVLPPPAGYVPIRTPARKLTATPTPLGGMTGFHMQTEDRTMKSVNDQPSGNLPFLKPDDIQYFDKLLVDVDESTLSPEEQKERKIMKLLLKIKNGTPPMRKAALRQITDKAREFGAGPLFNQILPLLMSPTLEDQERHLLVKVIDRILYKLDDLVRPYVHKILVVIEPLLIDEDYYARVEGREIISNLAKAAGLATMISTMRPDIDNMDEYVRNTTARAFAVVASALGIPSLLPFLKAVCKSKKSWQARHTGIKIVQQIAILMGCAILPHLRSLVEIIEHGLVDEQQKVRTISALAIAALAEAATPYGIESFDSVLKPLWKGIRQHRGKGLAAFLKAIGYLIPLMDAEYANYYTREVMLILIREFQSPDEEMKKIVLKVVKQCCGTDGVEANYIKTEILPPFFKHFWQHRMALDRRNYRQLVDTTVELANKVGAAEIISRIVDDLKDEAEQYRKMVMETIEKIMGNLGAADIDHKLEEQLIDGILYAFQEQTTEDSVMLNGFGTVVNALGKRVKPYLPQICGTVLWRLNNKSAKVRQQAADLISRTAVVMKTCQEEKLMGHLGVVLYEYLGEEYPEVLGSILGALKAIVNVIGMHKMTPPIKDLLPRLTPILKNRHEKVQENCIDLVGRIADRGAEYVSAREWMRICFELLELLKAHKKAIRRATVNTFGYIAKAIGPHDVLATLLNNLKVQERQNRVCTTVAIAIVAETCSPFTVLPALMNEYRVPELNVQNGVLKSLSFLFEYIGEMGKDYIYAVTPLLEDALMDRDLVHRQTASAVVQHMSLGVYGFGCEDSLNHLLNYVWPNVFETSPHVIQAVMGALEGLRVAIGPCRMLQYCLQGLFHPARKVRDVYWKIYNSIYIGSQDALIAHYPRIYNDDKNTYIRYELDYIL
UniProt P17542: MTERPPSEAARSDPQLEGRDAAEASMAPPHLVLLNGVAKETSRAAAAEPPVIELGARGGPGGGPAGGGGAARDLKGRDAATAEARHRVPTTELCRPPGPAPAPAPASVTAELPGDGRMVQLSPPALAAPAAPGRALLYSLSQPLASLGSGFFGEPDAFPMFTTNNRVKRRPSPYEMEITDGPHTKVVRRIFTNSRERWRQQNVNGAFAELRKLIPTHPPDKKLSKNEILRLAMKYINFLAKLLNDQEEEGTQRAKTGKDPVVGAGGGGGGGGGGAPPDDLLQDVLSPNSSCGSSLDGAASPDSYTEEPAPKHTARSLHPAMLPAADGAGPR
Flag-tagged TAL1 short form (TAL1s), stable K562 line: residues 176-331 of P17542

binding [1]: binds
binding [2]: binds
B1: RBM15 (RNA Binding Motif Protein 15) in K562 cells (protein, UniProt Q96T37 1-977)
chain: MRTAGRDPVPRRSPRWRRAVPLCETSAGRRVTQLRGDDLRRPATMKGKERSPVKAKRSRGGEDSTSRGERSKKLGGSGGSNGSSSGKTDSGGGSRRSLHLDKSSSRGGSREYDTGGGSSSSRLHSYSSPSTKNSSGGGESRSSSRGGGGESRSSGAASSAPGGGDGAEYKTLKISELGSQLSDEAVEDGLFHEFKRFGDVSVKISHLSGSGSGDERVAFVNFRRPEDARAAKHARGRLVLYDRPLKIEAVYVSRRRSRSPLDKDTYPPSASVVGASVGGHRHPPGGGGGQRSLSPGGAALGYRDYRLQQLALGRLPPPPPPPLPRDLERERDYPFYERVRPAYSLEPRVGAGAGAAPFREVDEISPEDDQRANRTLFLGNLDITVTESDLRRAFDRFGVITEVDIKRPSRGQTSTYGFLKFENLDMSHRAKLAMSGKIIIRNPIKIGYGKATPTTRLWVGGLGPWVPLAALAREFDRFGTIRTIDYRKGDSWAYIQYESLDAAHAAWTHMRGFPLGGPDRRLRVDFADTEHRYQQQYLQPLPLTHYELVTDAFGHRAPDPLRGARDRTPPLLYRDRDRDLYPDSDWVPPPPPVRERSTRTAATSVPAYEPLDSLDRRRDGWSLDRDRGDRDLPSSRDQPRKRRLPEESGGRHLDRSPESDRPRKRHCAPSPDRSPELSSSRDRYNSDNDRSSRLLLERPSPIRDRRGSLEKSQGDKRDRKNSASAERDRKHRTTAPTEGKSPLKKEDRSDGSAPSTSTASSKLKSPSQKQDGGTAPVASASPKLCLAWQGMLLLKNSNFPSNMHLLQGDLQVASSLLVEGSTGGKVAQLKITQRLRLDQPKLDEVTRRIKVAGPNGYAILLAVPGSSDSRSSSSSAASDTATSTQRPLRNLVSYLKQKQAAGVISLPVGGNKDKENTGVLHAFPPCEFSQQFLDSPAKALAKSEEDYLVMIIVRGFGFQIGVRYENKKRENLALTLL

binding [3]: binds
binding [4]: no binding
B2: ETO2 (protein, UniProt O75081 1-653)
chain: MPASRLRDRAASSASGSTCGSMSQTHPVLESGLLASAGCSAPRGPRKGGPAPVDRKAKASAMPDSPAEVKTQPRSTPPSMPPPPPAASQGATRPPSFTPHTHREDGPATLPHGRFHGCLKWSMVCLLMNGSSHSPTAINGAPCTPNGFSNGPATSSTASLSTQHLPPACGARQLSKLKRFLTTLQQFGSDISPEIGERVRTLVLGLVNSTLTIEEFHSKLQEATNFPLRPFVIPFLKANLPLLQRELLHCARLAKQTPAQYLAQHEQLLLDASASSPIDSSELLLEVNENGKRRTPDRTKENGSDRDPLHPEHLSKRPCTLNPAQRYSPSNGPPQPTPPPHYRLEDIAMAHHFRDAYRHPDPRELRERHRPLVVPGSRQEEVIDHKLTEREWAEEWKHLNNLLNCIMDMVEKTRRSLTVLRRCQEADREELNHWARRYSDAEDTKKGPAPAAARPRSSSAGPEGPQLDVPREFLPRTLTGYVPEDIWRKAEEAVNEVKRQAMSELQKAVSDAERKAHELITTERAKMERALAEAKRQASEDALTVINQQEDSSESCWNCGRKASETCSGCNAARYCGSFCQHRDWEKHHHVCGQSLQGPTAVVADPVPGPPEAAHSLGPSLPVGAASPSEAGSAGPSRPGSPSPPGPLDTVPR

binding [5]: binds
binding [6]: no binding
B3: ETO2 in K562 cells (protein, UniProt O75081 1-653)
chain: B2 chain
